Like-named read-outs stand apart in the source and are kept apart here.
Columns and labels:
HCV replicon = experiment: microbe, parasite or virus in culture; type: cell-based; conditions: Hepatitis C virus
[1] = test system: HCV IRES-driven translation
Method: (§1) Both HepGmono-4 and pLuc cells are treated with the compounds as described above, following treatment with the test compounds for 20 hours, cells are collected and lysed in Laemmli buffer containing 0.5% SDS. Proteins are separated on a 10% SDS-PAGE, then transferred onto a nitrocellulose membrane, and blotted using antibodies against Fluc (RDI) and β-actin (Oncogene).

[2] = test system: cap-dependent translation (pLuc); experiment: Western blot of Fluc protein in pLuc cells (cap-dependent translation); conditions: 20 hours treatment; data not shown
Method: as §1

[3] = 48 h, read-out: Replicon IC50 μM 2-day

Row | SMILES | IC50 (HCV replicon; [3]) [µM] | further results
1 | CCCS(=O)(=O)Nc1ccc(-c2c(C#N)c3ccc(OC(F)F)cc3n2CC)cc1 [Compound 928, Propane-1-sulfonic acid [4-(3-cyano-6-difluoromethoxy-1-ethyl-1H-indoel-2-yl)-phenyl]-amide] | < 0.5 | IC50 (HCV replicon; 72 h, read-out: Replicon IC50 μM 3-day): < 0.5 µM
2 | C[C@@H](OC(=O)Nc1ccc(-c2c(C#N)c3ccc(Oc4ncccn4)cc3n2C2CCC2)cc1)C1CC1 [Compound 2210, (R)-{4-[3-cyano-1-cyclobutyl-6-(pyrimidin-2-yloxy)-1H-indol-2-yl]-phenyl}carbamic acid 1-cyclopropyl-ethyl ester] | < 0.5 | –
3 | C[C@@H](OC(=O)Nc1ccc(-c2c(C#N)c3ccc(Oc4ncccn4)cc3n2C2CC2)cc1)C1CC1 [Compound 2217, (R)-{4-[3-cyano-1-cyclopropyl-6-(pyrimidin-2-yloxy)-1H-indol-2-yl]-phenyl}-carbamic acid 1-cyclopropylethyl ester] | < 0.5 | –
4 | CC(C)NS(=O)(=O)Nc1ccc(-c2c(C#N)c3ccc(Oc4ncccn4)cc3n2C2CCC2)cc1 [Compound 2263] | < 0.5 | –
5 | CC(C)OC(=O)Nc1ccc(-c2c(C#N)c3ccc(Oc4ncccn4)cc3n2C2CCC2)cc1Cl [Compound 2339, {2-chloro-4-[3-cyano-1-cyclobutyl-6-(pyrimidin-2-yloxy)-1H-indol-2-yl]-phenyl}-carbamic acid isopropyl ester] | < 0.5 | –
6 | C[C@@H](OC(=O)Nc1ccc(-c2c(C#N)c3ccc(-c4ccccn4)cc3n2C2CCC2)cc1)C1CC1 [Compound 2417, [4-(3-cyano-1-cyclobutyl-6-pyridin-2-yl-1H-indol-2-yl)-phenyl]-carbamic acid 1-cyclopropyl-ethyl ester] | < 0.5 | –
7 | C[C@@H](OC(=O)Nc1ccc(-c2c(C#N)c3ccc(-c4ncccn4)cc3n2C2CCC2)cc1)C1CC1 [Compound 2419, [4-(3-cyano-1-cyclobutyl-6-pyrimidin-2-yl-1H-indol-2-yl)-phenyl]-carbamic acid 1-cyclopropyl-ethyl ester] | < 0.5 | –
8 | CC(C)Nc1ccc(-c2c(C#N)c3ccc(Oc4ncccn4)cc3n2C2CC2)cc1 [Compound 2434, 1-cyclopropyl-2-(4-isopropylamino-phenyl)-6-(pyrimidin-2-yloxy)-1H-indole-3-carbonitrile] | < 0.5 | –
9 | COc1ccc(C[C@H](N)C(=O)N[C@H]2[C@@H](O)[C@H](n3cnc4c(N(C)C)ncnc43)O[C@@H]2CO)cc1 [puromycin] | – | luciferase reporter protein levels in HepGmono-4 cells (Western blot) [1]: inhibited; luciferase reporter protein in pLuc cells, cap-dependent (Western blot) [2]: inhibited

— patent US7973069B2 (PTC Therapeutics, Inc., priority 2004, dated 2011)
